In paper PMC9911596 (Nature Communications, 2023):

Biological target: T1, Vtc1/Vtc3/Vtc4 complex (VTC complex) (Saccharomyces cerevisiae, UniProt P47075+Q02725, P47075:R264A/P47075:R266A/P47075:E426N)
T1 construct: full-length subunits co-expressed in Expi293F; Vtc1 C-terminal HA, Vtc3 N-terminal 3xFlag, Vtc4 C-terminal 2xStrep; detergent-purified; 3:1:1 pentamer; with Vacuolar transporter chaperone complex subunit 1
T1 sequence (P47075 1-721 R264A/R266A/E426N): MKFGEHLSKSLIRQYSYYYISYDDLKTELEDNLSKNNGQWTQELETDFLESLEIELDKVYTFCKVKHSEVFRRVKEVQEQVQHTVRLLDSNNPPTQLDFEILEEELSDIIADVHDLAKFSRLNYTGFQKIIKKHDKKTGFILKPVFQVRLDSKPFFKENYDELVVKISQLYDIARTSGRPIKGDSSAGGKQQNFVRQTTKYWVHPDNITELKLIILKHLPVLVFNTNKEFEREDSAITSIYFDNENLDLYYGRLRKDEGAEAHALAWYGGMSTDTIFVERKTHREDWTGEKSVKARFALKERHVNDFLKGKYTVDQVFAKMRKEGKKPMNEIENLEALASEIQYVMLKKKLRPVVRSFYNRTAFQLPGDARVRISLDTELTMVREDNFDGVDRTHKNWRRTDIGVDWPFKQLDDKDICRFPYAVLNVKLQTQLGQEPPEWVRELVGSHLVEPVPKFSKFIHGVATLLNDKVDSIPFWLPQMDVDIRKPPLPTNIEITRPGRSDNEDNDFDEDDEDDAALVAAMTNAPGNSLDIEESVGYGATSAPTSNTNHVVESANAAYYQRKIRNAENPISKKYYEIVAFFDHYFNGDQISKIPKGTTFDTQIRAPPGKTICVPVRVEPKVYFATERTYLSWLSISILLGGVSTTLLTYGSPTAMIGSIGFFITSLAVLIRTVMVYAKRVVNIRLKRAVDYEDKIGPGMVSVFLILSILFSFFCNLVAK
T1 sequence (Q02725 1-835): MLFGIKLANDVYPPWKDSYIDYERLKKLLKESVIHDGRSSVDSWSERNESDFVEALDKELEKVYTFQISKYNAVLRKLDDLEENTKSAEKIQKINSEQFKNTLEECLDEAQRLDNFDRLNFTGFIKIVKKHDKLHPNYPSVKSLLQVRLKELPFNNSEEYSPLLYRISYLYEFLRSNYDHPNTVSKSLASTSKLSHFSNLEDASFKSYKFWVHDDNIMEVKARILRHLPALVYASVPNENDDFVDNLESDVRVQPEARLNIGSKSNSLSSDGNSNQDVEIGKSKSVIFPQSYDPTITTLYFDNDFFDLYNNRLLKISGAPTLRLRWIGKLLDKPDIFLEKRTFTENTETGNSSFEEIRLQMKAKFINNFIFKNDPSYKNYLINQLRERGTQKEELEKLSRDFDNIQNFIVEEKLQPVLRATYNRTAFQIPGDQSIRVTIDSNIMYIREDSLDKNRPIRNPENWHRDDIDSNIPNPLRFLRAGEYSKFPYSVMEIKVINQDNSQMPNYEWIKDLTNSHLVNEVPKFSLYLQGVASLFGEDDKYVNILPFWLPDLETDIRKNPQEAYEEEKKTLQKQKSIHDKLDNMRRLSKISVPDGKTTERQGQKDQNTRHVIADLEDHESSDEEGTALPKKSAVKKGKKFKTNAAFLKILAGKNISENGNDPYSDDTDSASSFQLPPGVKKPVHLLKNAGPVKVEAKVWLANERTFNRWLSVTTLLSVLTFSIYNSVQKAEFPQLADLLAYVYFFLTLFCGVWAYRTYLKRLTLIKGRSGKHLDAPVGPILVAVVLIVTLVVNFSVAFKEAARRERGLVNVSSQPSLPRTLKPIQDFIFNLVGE
T1 sequence (P40046 2-129 partner): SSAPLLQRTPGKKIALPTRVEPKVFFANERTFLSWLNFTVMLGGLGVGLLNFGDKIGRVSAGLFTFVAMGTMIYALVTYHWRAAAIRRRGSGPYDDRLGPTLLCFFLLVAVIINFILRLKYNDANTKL
Assay: cryo-EM structure, […] Å
Conditions: 1 mM InsP6; pH 8.0; three sites: SPX of Vtc4, TTM Vtc3-TTM Vtc4 cleft, TTM Vtc4 tunnel; catalytically impaired complex

## O=P(O)(O)O[C@H]1[C@H](OP(=O)(O)O)[C@@H](OP(=O)(O)O)[C@H](OP(=O)(O)O)[C@@H](OP(=O)(O)O)[C@H]1OP(=O)(O)O [InsP6]
  cryo-EM structure, 3.0 Å: Three InsP6 molecules were identified in the VTC complex structure
